Laboratory results taken from patent publication US12497460B2, “Anti-MSR1 antibodies and methods of use thereof” (REGENERON PHARMACEUTICALS, INC., priority 2018, dated 2025).

Key:
[1] = tested on: B16F10.9 cells (MSR1 negative); assay: Flow cytometry binding, MSR1 negative cells; assay type: cell-based, mouse; settings: 10 μg/mL antibody
Description: Relative cell surface binding of the anti-MSR1 antibodies to mouse MSR1 expressing cells was determined by flow cytometry using MSR1 positive RAW264.7 cells (ATCC, Catalog #TIB-71) and MSR1 negative B16F10.9 cells (Lin et al. 1998. PNAS 95:8829-8834). For the assay, cells were plated in PBS without calcium and magnesium (VWR Cat #45000-446) and 2% FBS (Saradigm Cat #1500-500) (Staining Buffer) in 96 well V-bottom plates (Axygen Scientific, Cat #P-96-450-V-C-S). To block binding to Fc receptors, RAW264.7 cells were incubated for 30 minutes at 4° C. with 500 μg/mL mouse IgG (Jackson ImmunoResearch, Cat #015-000-003) diluted in staining buffer, while B16F10.9 cells remained in staining buffer. Following Fc receptor blocking, 10 μg/mL of anti-MSR1 antibodies or an isotype control antibody were added to the cells and were subsequently incubated for 30 minutes on ice. For a positive control, a commercial anti-mouse MSR1 (Sino Biological, Cat #50129-R004) antibody was used, while a rabbit IgG antibody (Thermo Scientific, Cat #26102) was used as a negative control. […] Cells were subsequently washed and fixed using a 50% solution of Cytofix (BD Biosciences, Cat #554655) diluted in PBS. […] The signal to noise (S/N) was determined by calculating the ratio of the anti-MSR1 antibodies or the control antibodies MFI to the unstained sample MFI (Table 11).

[2] = molecular target: T1, MSR1 on differentiated THP-1 cells (Homo sapiens, UniProt P21757); assay: Binding and internalization of cell-surface expressed MSR1 in differentiated THP-1 cells; assay type: cell-based; settings: 10 μg/mL antibody
T1 construct: endogenous in cells; host or cells: THP-1 cells differentiated with PMA
T1 sequence (P21757 1-451): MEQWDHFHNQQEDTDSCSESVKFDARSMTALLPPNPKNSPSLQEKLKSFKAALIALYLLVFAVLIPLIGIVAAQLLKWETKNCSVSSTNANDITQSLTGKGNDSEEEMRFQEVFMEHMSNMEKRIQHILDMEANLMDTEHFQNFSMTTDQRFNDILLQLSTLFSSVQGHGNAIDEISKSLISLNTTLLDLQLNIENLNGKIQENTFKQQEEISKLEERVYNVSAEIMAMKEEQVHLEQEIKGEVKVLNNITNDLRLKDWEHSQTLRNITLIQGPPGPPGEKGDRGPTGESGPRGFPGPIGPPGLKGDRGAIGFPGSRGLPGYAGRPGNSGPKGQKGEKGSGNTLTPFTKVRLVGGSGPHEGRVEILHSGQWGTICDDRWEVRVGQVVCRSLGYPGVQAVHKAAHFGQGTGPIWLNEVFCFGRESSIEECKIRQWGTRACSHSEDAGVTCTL
Description: Exemplary anti-MSR1 antibodies were assessed for their ability to bind and internalize MSR1 on MSR1-expressing cells.
The THP-1 cells were allowed to differentiate for 4 days at 37° C. in 5% CO2. […] The remaining two plates were incubated at 37° C. for 1 hour followed by fixation and staining for 20 minutes using a solution of 4% PFA+5 μM DRAQ5 diluted in PBS (internalization plates). After fixation, all plates were washed once with PBS. […] The remaining plates were incubated with PBS only. Confocal images were acquired on the Opera Phenix (Perkin Elmer) at 40× magnification. […] The total binding at 4° C. (RFU values of 4° C. unquenched wells), total binding at 37° C. (RFU values of 37° C. unquenched wells), the total internalized RFU, and % Internalization were determined for each antibody as shown in Table 14.
For all calculations, background fluorescence from unstained wells was subtracted from every well. Total internalized RFU was calculated as follows: Total RFU of 37° C. unquenched samples−Surface RFU at 37° C. Surface RFU is defined as unquenched RFU at 37° C.−quenched RFU at 37° C.)/QE. QE (quenching efficiency) is defined as: 1−(Total RFU of 4° C. quenched sample/Total RFU of 4° C. unquenched sample). The % Internalization was determined from the following formula: (Total internalized RFU at 37° C./Total RFU at 37° C.)*100.

[3] = molecular target: HMM-mfMSR1 (monkey MSR1 extracellular domain); assay: Biacore surface plasmon resonance binding kinetics of anti-MSR1 mAbs, antibody-capture format; settings: analyte HMM-mfMSR1, NB = no binding observed; for kd: * = no dissociation observed, kd manually fixed at 1.00E−05; for ka: antibody-capture format
Description: Binding affinities and kinetic constants of human anti-MSR1 antibodies for different MSR1 reagents were determined by real-time surface plasmon resonance (Biacore 4000). All binding studies were performed in 10 mM HEPES, 150 mM NaCl, 3 mM EDTA, and 0.05% v/v Surfactant Tween-20, pH 7.4 (HBS-ET) running buffer at 25° C. and 37° C.
(§1) The association rate (ka) and dissociation rate (kd) were determined by fitting the real-time binding sensorgrams to a 1:1 binding model with mass transport limitation using Scrubber 2.0c curve-fitting software. Binding dissociation equilibrium constant (KD) and dissociative half-life (t½) were calculated from the kinetic rates as: […]

[4] = molecular target: T2, His9-hMSR1 (human MSR1 extracellular domain) (Homo sapiens, UniProt P21757); assay: Biacore T200 surface plasmon resonance binding kinetics of anti-MSR1 antibody-drug conjugates and parental antibodies; settings: 25° C.
T2 construct: human MSR1 extracellular domain expressed with a N-terminal nonahistidine tag; His9 (nonahistidine) (N); purchased R&D Systems 2708-MS
T2 sequence (P21757 77-451 limits assumed): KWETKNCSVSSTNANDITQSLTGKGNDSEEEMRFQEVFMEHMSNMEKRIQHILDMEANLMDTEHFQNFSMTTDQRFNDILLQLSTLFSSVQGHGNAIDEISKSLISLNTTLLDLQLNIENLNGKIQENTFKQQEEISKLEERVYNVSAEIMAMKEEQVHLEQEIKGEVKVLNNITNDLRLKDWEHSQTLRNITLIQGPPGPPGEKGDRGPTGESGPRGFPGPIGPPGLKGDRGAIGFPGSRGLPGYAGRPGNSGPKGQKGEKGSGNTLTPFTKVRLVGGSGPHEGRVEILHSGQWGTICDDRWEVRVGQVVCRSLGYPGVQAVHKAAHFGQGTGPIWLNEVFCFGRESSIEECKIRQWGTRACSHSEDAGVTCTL
Description: The MSR1 antibodies disclosed herein were conjugated to various liver X receptor (LXR) payloads or various steroid payloads. This example describes how equilibrium dissociation constant (KD) values for human MSR1 reagents binding to human anti-MSR1 antibody-drug conjugates and their corresponding unconjugated parental antibodies were determined using a real-time surface plasmon resonance-based Biacore T200 biosensor.
All binding studies were performed in 10 mM HEPES, 300 mM NaCl, 3 mM EDTA, and 0.05% v/v Surfactant Tween-20, pH 7.4 (HBS-ET) running buffer at 25° C. The Biacore CM4 sensor chip surface was first derivatized by amine coupling with the goat anti-human Fcγ specific polyclonal antibody (Jackson ImmunoResearch Laboratories, Cat #BR-1008-39) to capture anti-MSR1 monoclonal antibodies. Binding studies were performed on human MSR1 extracellular domain expressed with a N-terminal nonahistidine tag (His9-hMSR1; R&D Systems, Cat #2708-MS).
as §1

[5] = tested on: LXR (THP1/LXR-Luc cells); assay: LXR-luciferase reporter bioassay (Example 31); assay type: cell-based, human; settings: 48 hours
Text: Generation of assay cell line. To test the efficacy of anti-MSR1 antibody-LXR conjugates in vitro, a cell-based LXR responsive luciferase reporter assay was developed. To generate the assay cell line, a LXR regulated luciferase reporter gene [Cignal Lenti LXR Reporter (luc) kit (Qiagen, Cat #CLS-001 L)] was transduced into THP1 cells, and cells were selected for two weeks in puromycin. The lentivirus expresses the firefly luciferase gene under the control of a minimal CMV promoter and tandem repeats of the LXR transcriptional response element. The resulting cell line is referred to as THP1/LXR-Luc cells.
Assay protocol. THP1/LXR-Luc cells were seeded onto 96 well plates at 40,000 cells/well in media containing RPMI supplemented with 10% FBS and pencillin/streptomycin and subsequently differentiated with 200 nM Phorbol Myristate Acetate (PMA) for 3 days. […] Forty-eight hours later, luciferase activity was determined after the addition of One-Glo™ reagent (Promega, Cat #E6130) to each well. Relative light units (RLUs) were measured on a Victor luminometer (PerkinElmer) and EC50 values were determined using a four-parameter logistic equation over a 10-point dose response curve (GraphPad Prism). The signal to noise (S/N) was determined by calculating the ratio of RLU of standard one over RLU of standard eight for each of the unconjugated anti-MSR1 antibodies or free payloads. […]

B1: H1H27751P-N297Q: one of "Twelve anti-MSR1 antibodies"; "made with an N297Q single point mutation in human Fcγ portion" (antibody, V domains shown)
VH: EVQLVESGGGLVQPGGSLRLSCAASGFTFSNYAMHWVRQAPGKGLEYVSAISSNGGSTYYADSVKGRITISRDNSKNTLYLQMGSLRAEDMAVYYCARGRPYYYYFGMDVWGQGTTVTVSS
VL: [here about 100 residues without letters]QFPLNFGGGTKVEIKR
Question: Which “B16F10.9 MFI” value [1] does the source give for B1 here?
Answer: 4992

Question: What about the “% Internalization” value [2] of the same molecule?
Answer: 84.9%

Question: What about the “Total Binding at 4° C.” value ([2]; 4° C.) of the same molecule?
Answer: 5831744

Question: What about the “Total Binding at 37° C.” value ([2]; 37° C.) of the same molecule?
Answer: 7998767

Question: What about the “Total Internalized RFU” value ([2]; 37° C.) of the same molecule?
Answer: 6787876 RFU

Question: What about the kd ([3]; 25° C.) of the same molecule?
Answer: 0.000749 s⁻¹

Question: What about the ka ([3]; 25° C.) of the same molecule?
Answer: 744000 M⁻¹ s⁻¹

Question: What about the kd ([3]; 37° C.) of the same molecule?
Answer: 0.0018 s⁻¹

Question: What about the ka ([3]; 37° C.) of the same molecule?
Answer: 1.17e+06 M⁻¹ s⁻¹

B2: H1H27751P-N297Q-LP1 (conjugate)
VH: EVQLVESGGGLVQPGGSLRLSCAASGFTFSNYAMHWVRQAPGKGLEYVSAISSNGGSTYYADSVKGRITISRDNSKNTLYLQMGSLRAEDMAVYYCARGRPYYYYFGMDVWGQGTTVTVSS
VL: [here about 100 residues without letters]QFPLNFGGGTKVEIKR
Question: B2 was tested. Which ka ([4]; Table 19, antibody-LXR ADCs and unconjugated antibodies) did it give?
Answer: 229000 M⁻¹ s⁻¹

Question: And the kd ([4]; Table 19, * = no dissociation observed, kd manually fixed at 1.00E−05)?
Answer: 0.000152 s⁻¹

Question: What about the EC50 ([5]; differentiated THP1/LXR-Luc cells) of the same molecule?
Answer: 1.54 nM

Question: And the S/N ([5]; signal to noise, ratio of RLU of standard one over standard eight)?
Answer: 17.9
